# From the supplement of paper PMC8728848
# The other results are listed elsewhere or left out.
# Assays:
# Experiment in all cases: glycan array binding signal (z-score within array); higher = stronger binding
# Conditions in all cases: glycan notation: IUPAC condensed, linker removed
# [1] = molecular target: Fuc(a1-2)[GalNAc(a1-3)]Gal(b1-4)GlcNAc(b1-3)[Fuc(a1-2)[GalNAc(a1-3)]Gal(b1-4)GlcNAc(b1-6)]GalNAc
# Summary of the method: (§1)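 Columns mapping to the same glycan were averaged after glycan names were converted to IUPAC-condensed notation. The data come from 3228 arrays in the Consortium for Functional Glycomics database, limited to those with an available protein sequence. Binding is reported as a within-array Z-score averaged across arrays of one protein sequence and across linkers.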
# [2] = molecular target: Fuc(a1-2)[GalNAc(a1-3)]Gal(b1-4)GlcNAc(b1-6)GalNAc
# Summary of the method: as §1
# [3] = molecular target: Fuc(a1-2)[GalNAc(a1-3)]Gal(b1-4)[Fuc(a1-3)]GlcNAc
# Summary of the method: as §1
# [4] = molecular target: Fuc(a1-2)[GalNAc(a1-3)]Gal(b1-4)[Fuc(a1-3)]GlcNAc(b1-3)GalNAc
# Summary of the method: as §1
# [5] = molecular target: Fuc(a1-2)[GalNAc(a1-4)]Gal(b1-4)GlcNAc
# Summary of the method: as §1
# [6] = molecular target: Fuc(a1-2)[GalNAc(b1-3)]Gal
# Summary of the method: as §1
# Fuc(a1-3)GlcNAc = molecular target: Fuc(a1-3)GlcNAc
# Summary of the method: as §1
# [7] = molecular target: Fuc(a1-3)[Gal(b1-4)]Glc6S
# Summary of the method: as §1
# [8] = molecular target: Fuc(a1-3)[Gal(b1-4)]GlcNAc
# Summary of the method: as §1
# [9] = molecular target: Fuc(a1-3)[Gal(b1-4)]GlcNAc(b1-2)Man
# Summary of the method: as §1
# [10] = molecular target: Fuc(a1-3)[Gal(b1-4)]GlcNAc(b1-2)Man(a1-3)[Fuc(a1-3)[Gal(b1-4)]GlcNAc(b1-2)Man(a1-6)]Man(b1-4)GlcNAc(b1-4)GlcNAc
# Summary of the method: as §1
# [11] = molecular target: Fuc(a1-3)[Gal(b1-4)]GlcNAc(b1-2)Man(a1-3)[Fuc(a1-3)[Gal(b1-4)]GlcNAc(b1-2)Man(a1-6)]Man(b1-4)GlcNAc(b1-4)[Fuc(a1-6)]GlcNAc
# Summary of the method: as §1
# [12] = molecular target: Fuc(a1-3)[Gal(b1-4)]GlcNAc(b1-3)Gal(b1-3)[Fuc(a1-4)]GlcNAc
# Summary of the method: as §1
# [13] = molecular target: Fuc(a1-3)[Gal(b1-4)]GlcNAc(b1-3)Gal(b1-4)[Fuc(a1-3)]GlcNAc
# Summary of the method: as §1
# [14] = molecular target: Fuc(a1-3)[Gal(b1-4)]GlcNAc(b1-3)Gal(b1-4)[Fuc(a1-3)]GlcNAc(b1-3)Gal(b1-4)[Fuc(a1-3)]GlcNAc
# Summary of the method: as §1
# [15] = molecular target: Fuc(a1-3)[Gal(b1-4)]GlcNAc(b1-3)GalNAc
# Summary of the method: as §1
# [16] = molecular target: Fuc(a1-3)[Gal(b1-4)]GlcNAc(b1-4)Gal(b1-4)[Fuc(a1-3)]GlcNAc
# Summary of the method: as §1
# [17] = molecular target: Fuc(a1-3)[Gal(b1-4)]GlcNAc(b1-4)Gal(b1-4)[Fuc(a1-3)]GlcNAc(b1-4)Gal(b1-4)[Fuc(a1-3)]GlcNAc
# Summary of the method: as §1
# [18] = molecular target: Fuc(a1-3)[Gal(b1-4)]GlcNAc(b1-6)GalNAc
# Summary of the method: as §1
# [19] = molecular target: Fuc(a1-3)[Gal(b1-4)]GlcNAc(b1-6)[Gal(b1-3)GlcNAc(b1-3)]Gal(b1-4)Glc
# Summary of the method: as §1
# [20] = molecular target: Fuc(a1-3)[Gal(b1-4)]GlcNAc6S
# Summary of the method: as §1
# [21] = molecular target: Fuc(a1-3)[Gal3S(b1-4)]Glc
# Summary of the method: as §1
# [22] = molecular target: Fuc(a1-3)[Gal3S(b1-4)]GlcNAc
# Summary of the method: as §1
# [23] = molecular target: Fuc(a1-3)[Gal3S(b1-4)]GlcNAc6S
# Summary of the method: as §1
# [24] = molecular target: Fuc(a1-3)[GalNAc(b1-4)]Gal(b1-4)GlcNAc
# Summary of the method: as §1
# [25] = molecular target: Fuc(a1-3)[GalNAc(b1-4)]GlcNAc
# Summary of the method: as §1
# [26] = molecular target: Fuc(a1-3)[GalNAc(b1-4)]GlcNAc6S
# Summary of the method: as §1
# Fuc(a1-4)GlcNAc = molecular target: Fuc(a1-4)GlcNAc
# Summary of the method: as §1
# Fuc(b1-3)GlcNAc = molecular target: Fuc(b1-3)GlcNAc
# Summary of the method: as §1
# Gal(a1-2)Gal = molecular target: Gal(a1-2)Gal
# Summary of the method: as §1
# Gal(a1-3)Gal = molecular target: Gal(a1-3)Gal
# Summary of the method: as §1
# Gal(a1-3)Gal(b1-3)Glc = molecular target: Gal(a1-3)Gal(b1-3)Glc
# Summary of the method: as §1
# Gal(a1-3)Gal(b1-3)GlcNAc = molecular target: Gal(a1-3)Gal(b1-3)GlcNAc
# Summary of the method: as §1
# [27] = molecular target: Gal(a1-3)Gal(b1-3)GlcNAc(b1-2)Man
# Summary of the method: as §1
# [28] = molecular target: Gal(a1-3)Gal(b1-3)GlcNAc(b1-2)Man(a1-3)[Gal(a1-3)Gal(b1-3)GlcNAc(b1-2)Man(a1-6)]Man(b1-4)GlcNAc(b1-4)GlcNAc
# Summary of the method: as §1
# [29] = molecular target: Gal(a1-3)Gal(b1-3)GlcNAc(b1-3)GalNAc
# Summary of the method: as §1
# [30] = molecular target: Gal(a1-3)Gal(b1-3)GlcNAc(b1-6)GalNAc
# Summary of the method: as §1
binder,measurement,setting,value
Epa12 (Candida glabrata) (protein) MGSSHHHHHHSSGLVPRGSHMLEPDNSLQIFDSFLSNPSKYPLGCSPKITNPKKGLSMELYSYPYRKKGSHPCWDPAYLDPNFPRVGYKKNKLIARVDGVSGDINFNFHPKRQCTPIADYLPPNFNYNEPITTTNFTMLLYGYFKPKVTGLHTFDISADDLLFMNFGAGNAFDCCRRDSTADTFGNYVAWAIWGRRIVRNKLTVRLDKGIYYPLRLFFNNRDYYGQMRLTFKTEHGSERITDFSDYFFSVDDTSEGCPGLITYESECADVKSSTVLETDYITIQAEKE,glycan array binding signal (z-score),[1],-0.028
same,glycan array binding signal (z-score),[2],-0.311
same,glycan array binding signal (z-score),[3],-0.268
same,glycan array binding signal (z-score),[4],-0.353
same,glycan array binding signal (z-score),[5],-0.296
same,glycan array binding signal (z-score),[6],-0.277
same,glycan array binding signal (z-score),Fuc(a1-3)GlcNAc,-0.335
same,glycan array binding signal (z-score),[7],0.203
same,glycan array binding signal (z-score),[8],-0.333
same,glycan array binding signal (z-score),[9],-0.289
same,glycan array binding signal (z-score),[10],-0.383
same,glycan array binding signal (z-score),[11],-0.174
same,glycan array binding signal (z-score),[12],-0.32
same,glycan array binding signal (z-score),[13],-0.3
same,glycan array binding signal (z-score),[14],-0.305
same,glycan array binding signal (z-score),[15],-0.27
same,glycan array binding signal (z-score),[16],-0.255
same,glycan array binding signal (z-score),[17],0.964
same,glycan array binding signal (z-score),[18],-0.306
same,glycan array binding signal (z-score),[19],-0.018
same,glycan array binding signal (z-score),[20],0.364
same,glycan array binding signal (z-score),[21],-0.279
same,glycan array binding signal (z-score),[22],0.051
same,glycan array binding signal (z-score),[23],-0.206
same,glycan array binding signal (z-score),[24],-0.287
same,glycan array binding signal (z-score),[25],-0.339
same,glycan array binding signal (z-score),[26],-0.366
same,glycan array binding signal (z-score),Fuc(a1-4)GlcNAc,-0.241
same,glycan array binding signal (z-score),Fuc(b1-3)GlcNAc,-0.313
same,glycan array binding signal (z-score),Gal(a1-2)Gal,0.092
same,glycan array binding signal (z-score),Gal(a1-3)Gal,2.18
same,glycan array binding signal (z-score),Gal(a1-3)Gal(b1-3)Glc,-0.242
same,glycan array binding signal (z-score),Gal(a1-3)Gal(b1-3)GlcNAc,1.71
same,glycan array binding signal (z-score),[27],3.52
same,glycan array binding signal (z-score),[28],0.261
same,glycan array binding signal (z-score),[29],1.07
same,glycan array binding signal (z-score),[30],4.44
